Reference: PubChem BioAssay (NCI)
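Tested at 5 concentrations; 48 h exposure; 96-well plates; endpoints linearly interpolated, else capped at highest concentration. GI50 marks 50% less growth. At the TGI there is no net growth.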

Test system: NCI-H322M lung
Assay: NCI anticancer screen, dose series, 48 h

COc1ccc([C@@H]2[C@@H](O)C(=O)N2c2cc(OC)c(OC)c(OC)c2)cc1Cl
GI50: 23.2 nM | TGI: > 100000 nM
